In PubChem BioAssay AID651820 (National Center for Advancing Translational Sciences (NCATS), 2012):
Several values for one entry are separate records, joined by “and”; a condition that tells them apart may be missing. Equal entries are not always repeated. Hit rate of the full screen: of about 340,000 compounds, about 12,000 (3.5%) were called active. The shares of active, inactive and inconclusive entries below differ from those in the screen. The call rests on the fitted dose curve; in most records, active means well fitted inhibition curve with a large enough effect; inconclusive means small, poorly fitted or top-dose-only effect, or another doubt; inactive means no such curve, though single readings can be large or run the other way. Where the call is inconclusive, the potency comes from a doubtful curve fit.

Assay: qHTS Assay for Inhibitors of Hepatitis C Virus (HCV)
Conditions: Huh7.5.1 HCVcc-Cre (HCVcc is cell-culture hepatitis C virus) infection, luciferase reporter, 44 h; activity change, negative = inhibition: at 41.8 µM (top of the series) unless noted
Procedure, shortened: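 Antiviral activity was scored by luciferase reporter output from cells infected with HCVcc-Cre (~0.5 moi) in presence of compound, 44 h infection period, cells seeded 1,000/well 4 h prior.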
On the % scale 0 is the no-effect control and ±100 the full control effect; potency means the concentration at half of the fitted maximal effect; tags describe the fitted curve by direction and shape.

Row | SMILES | activity change, negative = inhibition | Potency
1 | Cc1nc2c(c(=O)n1CCC1=CCCCC1)c1nc3ccccc3nc1n2/N=C/c1ccccc1 | inactive: -9.77% | 
2 | Cc1oc(-c2ccccc2F)nc1CS(=O)(=O)CC(=O)N1CCN(Cc2ccccc2)CC1 |  | inactive and inconclusive: 12.6 µM [inhibitor, single point]
3 | Cc1cccc(C(=O)NC2CC3CCC(C2)N3C)c1 (configuration not stated) |  | inconclusive: 31.6 µM [inhibitor, single point]
4 | COc1ccccc1-c1ccc(C(=O)O)o1 | inactive: 13.1% | 
5 | c1coc(CNc2ncnc3sc4c(c23)CCCCC4)c1 |  | inconclusive: 31.6 µM [inhibitor, single point]
6 | CCc1[nH]nc2c1C(C(C)C)C(C#N)=C(N)O2 (configuration not stated) | inactive: 14.8% | 
7 | COCCNc1oc(-c2ccccc2Cl)nc1C#N | inactive: -16.8% | 
8 | CCOC(=O)c1ccccc1NC(=O)COC(=O)c1cc([N+](=O)[O-])ccc1N1CCOCC1 |  | active: 2.24 µM
9 | CN(C)c1ccc(/C=C/c2nc3ccccc3c(=O)n2CCO)cc1 |  | inconclusive: 22.4 µM [inhibitor, single point]
10 | COc1ccc(-c2nc3ccccc3n2CCC(C)C)cc1OC |  | inconclusive: 31.6 µM [inhibitor, single point]
11 | CCCCc1nc(SCCOC)c2c(=O)n(C)c(=O)n(C)c2n1 |  | inconclusive: 11.2 µM [inhibitor, partial curve]
12 | O=C(Cn1ncc2c3ccccc3n(Cc3ccc(F)cc3)c2c1=O)N1CCN(c2ncccn2)CC1 |  | inconclusive: 25.1 µM [inhibitor, partial curve]
13 | COc1ccc(CNc2nc3ccccc3n2Cc2ccc(C)cc2)cc1OC | inactive: -8.21% | 
14 | CCCOc1ccc(C(=O)NC(=S)N2CCN(c3cc4c(cc3F)c(=O)c(C(=O)O)cn4CC)CC2)cc1 | inactive: 19.9% | 
15 | Cc1noc(C)c1S(=O)(=O)Nc1ccc2c(c1)C(=O)N([C@H](C)CO)C[C@H](C)[C@@H](CN(C)C(=O)Nc1ccc(C(F)(F)F)cc1)O2 |  | inconclusive: 31.6 µM [inhibitor, single point]
16 | COc1cccc(CNc2ccc3[nH]c(=O)[nH]c3c2)c1OCc1ccccc1Cl |  | inconclusive: 11.2 µM [inhibitor, single point]
17 | Cc1ccsc1/C=N\NC(=O)Cn1nnc2ccccc21 |  | inconclusive: 3.16 µM [inhibitor, full curve]
18 | CCn1c2c(c3cc(OCC(C)C)ccc31)CCCC2=O |  | inconclusive: 25.1 µM [inhibitor, single point]
19 | CC(C)n1cnc2c(NCc3ccccc3)cc(Cc3ccc(F)cc3)cc21 |  | inconclusive: 8.91 µM [inhibitor, partial curve]
20 | CCCc1cc(=O)oc2cc(OCC(=O)NCCc3ccc(S(N)(=O)=O)cc3)ccc12 | inactive: 0.0408% | 
21 | c1ccc(N(c2ccccc2)c2nc(-n3ccnc3)nc(-n3ccnc3)n2)cc1 |  | inconclusive: 31.6 µM [inhibitor, single point]
22 | O=c1[nH]c2ccccc2n1Cc1ccc(Cl)cc1 |  | inconclusive: 31.6 µM [inhibitor, single point]
23 | COc1ccc(Cn2cccc(NC(=O)Nc3ccc(C#N)cc3)c2=O)cc1 |  | inconclusive: 2.51 µM [inhibitor, full curve]

Row | SMILES | activity change, negative = inhibition | Potency
24 | COc1ccccc1CNC(=S)NCc1ccc(Cl)cc1 | inactive: -19.9% | 
25 | Cc1nn(Cc2ccccc2)c(C)c1C(=O)OCC(=O)Nc1cc(S(C)(=O)=O)ccc1Cl |  | inconclusive: 31.6 µM [inhibitor, single point]
26 | O=c1c2ccccc2nc(SCc2cccc(F)c2)n1Cc1ccco1 |  | inconclusive: 7.08 µM [inhibitor, partial curve]
27 | Cc1ccc2nc(CSc3nc(C)cc(C)c3C#N)[nH]c2c1 |  | inconclusive: 31.6 µM [inhibitor, single point]
28 | CC(C)(C)C(=O)Nc1ccc(S(=O)(=O)N2CCC(c3nc4ccccc4[nH]3)CC2)cc1 | inactive: 3.22% | 
29 | Cc1ccc(Cc2c(C)nc3nc(SCC(=O)NCCCN4CCCCCC4)nn3c2C)cc1 |  | inconclusive: 3.16 µM [inhibitor, single point]
30 | CCOC(=O)c1ncn2c1[C@@H]1CCNC1C(=O)c1cc(OC)ccc1-2 (some centres not stated) |  | inconclusive: 2.82 µM [inhibitor, single point]
31 | O=S(=O)(c1ccc(Oc2ccc(Br)cc2F)nc1)N1CCCCC1 |  | active: 25.1 µM
32 | COc1ccc(CNc2ccc(-c3ccccc3OC)nn2)cc1 |  | inconclusive: 3.98 µM [inhibitor, partial curve]
33 | COc1cc(/C=N\Nc2ccc([N+](=O)[O-])cc2)ccc1OCC(=O)Nc1ccc(C)c(C)c1 | inactive: -11.3% | 
34 | COc1ccc(-c2noc(=O)n2CC(=O)N2CCC(Cc3ccccc3)CC2)cc1 |  | inconclusive: 12.6 µM [inhibitor, single point]
35 | CCCCN1C2=C(C(=O)CC(C)(C)C2)C(c2ccccc2)C2=C1c1ccccc1C2=O (configuration not stated) |  | inconclusive: 31.6 µM [inhibitor, single point]
36 | CC1CCCN(c2ccc(C(=O)NCCc3ccccc3)cn2)C1 (configuration not stated) |  | inconclusive: 31.6 µM [inhibitor, single point]
37 | O=C(Nc1ccc(-c2ccccc2)cc1)c1ccco1 | inactive: 5.87% | 
38 | COc1ccc(NC(C)C(=O)Nc2cc(C(F)(F)F)ccc2N2CCOCC2)c(OC)c1 (configuration not stated) |  | inconclusive: 11.2 µM [inhibitor, partial curve]
39 | O=C(NCc1cccnc1)c1ccc(NC(=O)c2ccc(Br)cc2)cc1 |  | inconclusive: 3.55 µM [inhibitor, single point]
40 | C#CCOCCOCCOCCNc1nc(N2CCN(C(=O)Cn3cc(CC(C)O)nn3)CC2)nc(N2CCN(C(=O)[C@H](CCCCN)n3cc(CC(C)O)nn3)CC2)n1 (some centres not stated) | inactive: 2.79% [at 8.37 µM] | 
41 | COCCn1c(SCc2cccc([N+](=O)[O-])c2)nc2ccccc2c1=O |  | active: 11.2 µM
42 | CCOc1ccccc1NC(=O)c1ccc2nc[nH]c2c1 |  | inconclusive: 11.2 µM [inhibitor, partial curve]
43 | C=C(C)C(COc1c2occc2cc2ccc(=O)oc12)OC(C)(C)C(O)COc1c2occc2cc2ccc(=O)oc12 (configuration not stated) |  | inconclusive: 2.82 µM [inhibitor, partial curve]
44 | CC(C)Sc1nc(N2CCOCC2)c2c(c1C#N)CC(C)(C)SC2 |  | inconclusive: 31.6 µM [inhibitor, single point]
45 | O=C1/C(=C/c2cccc([N+](=O)[O-])c2)CSc2ccc(Cl)cc21 |  | inconclusive: 5.01 µM [inhibitor, single point]
46 | CCCCn1cnc2c(SCc3cccc(F)c3)nc(N)nc21 |  | inconclusive: 25.1 µM [inhibitor, single point]

Row | SMILES | activity change, negative = inhibition | Potency
47 | CCOC(=O)c1c(C)oc2cc(Br)c(OCC(N)=O)cc12 |  | inconclusive: 5.62 µM [inhibitor, single point]
48 | COC(=O)C1=C(c2cccc(OCc3ccccc3)c2)C[C@@H]2CC[C@H]1N2C(=O)NCCCc1ccccc1 |  | inconclusive: 25.1 µM [inhibitor, single point]
49 | Cc1cccc(-n2ncc3c(N)ncnc32)c1 |  | inconclusive: 31.6 µM [inhibitor, single point]
50 | COc1cccc(Cn2cnc3c(NS(=O)(=O)c4cccc(Cl)c4Cl)c(C)c(C)cc32)c1 |  | active: 12.6 µM
51 | CCOc1ccc(-n2nc(C(=O)N3CCN(CC)CC3)c3ccccc3c2=O)cc1 | inactive: 7.3% | 
52 | CCOc1ccc(C(=O)CSc2nnc(C3CC3)n2C)cc1 |  | inconclusive: 31.6 µM [inhibitor, single point]
53 | Cc1ccc(N(C)S(=O)(=O)c2ccc3c(c2)NC(=O)C(C)S3)cc1 (configuration not stated) |  | inconclusive: 25.1 µM [inhibitor, single point]
54 | CCOc1ccc(Cc2nnc(SCC(=O)Nc3ccccc3)n(N)c2=O)cc1 | inconclusive: -67.1% [inhibitor] | 
55 | CCn1c(SCC(=O)Nc2nc(-c3ccc(C)cc3)cs2)nnc1-c1ccccc1 |  | active: 7.94 µM
56 | C=C(C)C(=O)N1CC2(CC(c3cccc(NC(=O)CC(c4ccccc4)c4ccccc4)c3)=NO2)C[C@H]1C(N)=O (some centres not stated) | inactive: 22.9% | 
57 | O=C(NCCCN1CCOCC1)C(=O)N/N=C/c1c(Cl)cccc1Cl | inactive: 7.66% | 
58 | CC(=O)N1CCc2c(sc(NC(=O)CCS(=O)(=O)c3ccccc3)c2C(N)=O)C1 |  | inconclusive: 11.2 µM [inhibitor, single point]
59 | CCOC(=O)c1cc(NC(=O)OC)c(C)nc1C |  | inconclusive: 2.51 µM [inhibitor, partial curve]
60 | CN1CCc2c1nc1ccccc1c2N=C1CCCN1Cc1ccccc1 |  | inconclusive: 31.6 µM [inhibitor, single point]
61 | CCOC(=O)c1sc(NC(=O)c2ccc(C)s2)cc1C |  | inconclusive: 6.31 µM [inhibitor, full curve]
62 | CSc1nnc(-c2cc3c(s2)-c2ccccc2CC3)o1 |  | active: 2.51 µM
63 | C=CCC[C@H](Cc1ccc(F)cc1)C(=O)OC[C@H](Cc1c[nH]c2ccccc12)NC(=O)[C@@H](CC=C)CC(=O)N(CCO)Cc1ccccc1 |  | inconclusive: 3.16 µM [inhibitor, single point]
64 | O=C1ON=C(c2ccccc2)/C1=C/c1ccc(O)c(O)c1 | inactive: -6.87% | 
65 | CN1C(=O)[C@H]2[C@@H](/C=C/c3ccccc3)N3C(=O)CN(Cc4ccccc4)C(=O)[C@@]3(C)[C@H]2C1=O |  | inconclusive: 5.01 µM [inhibitor, single point]
66 | COc1cc(Cl)ccc1OCc1cc(C(=O)N(C)CCc2c(C)n[nH]c2C)no1 |  | inconclusive: 12.6 µM [inhibitor, single point]
67 | O=C(Nc1nccs1)C1CC(=O)N(c2ccccc2)C1 (configuration not stated) | inactive: 0.0785% | 
